Test results as given in PubChem BioAssay AID1645887 (National Center for Advancing Translational Sciences (NCATS), 2021).
Several values for one entry are separate records, joined by “and”; a condition that tells them apart may be missing. Equal entries are not always repeated. About 40 (0.2%) of roughly 16,000 compounds were called active. Inconclusive results (about 1%) are left out. Calls come from the whole dose curve; as a rule, active = well fitted activation curve with a large enough effect; inconclusive = small, poorly fitted or top-dose-only effect, or another doubt; inactive = no such curve, though single readings can be large or run the other way. Some of the results follow.

These compounds were tested against Rap guanine nucleotide exchange factor 4 (Homo sapiens) (UniProt Q8WZA2) (assay: Validation qHTS for agonist of cAMP-regulated guanine nucleotide exchange factor 4 (EPAC2)). Settings: EPAC2 Rap1B BODIPY-GDP exchange, fluorescence; activation: stronger effect = higher value.
Procedure, shortened: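 Fluorescent exchange assay: 100 nM EPAC2 with 250 nM RAP1B-BODIPY-GDP and 50 uM GDP; compound added, 5 min at room temperature, then read (ex 480/em 540 nm) every 5 min for 30 min. Normalized to 6.5 mM cAMP agonist control.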
% is set by controls: 0 for no effect and ±100 for the full control effect.
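Note: exchange makes BODIPY-GDP fluorescence drop when released from Rap1B; series mostly up to about 150 µM.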

UniProt Q8WZA2, sequence (Q8WZA2 whole entry, looked up): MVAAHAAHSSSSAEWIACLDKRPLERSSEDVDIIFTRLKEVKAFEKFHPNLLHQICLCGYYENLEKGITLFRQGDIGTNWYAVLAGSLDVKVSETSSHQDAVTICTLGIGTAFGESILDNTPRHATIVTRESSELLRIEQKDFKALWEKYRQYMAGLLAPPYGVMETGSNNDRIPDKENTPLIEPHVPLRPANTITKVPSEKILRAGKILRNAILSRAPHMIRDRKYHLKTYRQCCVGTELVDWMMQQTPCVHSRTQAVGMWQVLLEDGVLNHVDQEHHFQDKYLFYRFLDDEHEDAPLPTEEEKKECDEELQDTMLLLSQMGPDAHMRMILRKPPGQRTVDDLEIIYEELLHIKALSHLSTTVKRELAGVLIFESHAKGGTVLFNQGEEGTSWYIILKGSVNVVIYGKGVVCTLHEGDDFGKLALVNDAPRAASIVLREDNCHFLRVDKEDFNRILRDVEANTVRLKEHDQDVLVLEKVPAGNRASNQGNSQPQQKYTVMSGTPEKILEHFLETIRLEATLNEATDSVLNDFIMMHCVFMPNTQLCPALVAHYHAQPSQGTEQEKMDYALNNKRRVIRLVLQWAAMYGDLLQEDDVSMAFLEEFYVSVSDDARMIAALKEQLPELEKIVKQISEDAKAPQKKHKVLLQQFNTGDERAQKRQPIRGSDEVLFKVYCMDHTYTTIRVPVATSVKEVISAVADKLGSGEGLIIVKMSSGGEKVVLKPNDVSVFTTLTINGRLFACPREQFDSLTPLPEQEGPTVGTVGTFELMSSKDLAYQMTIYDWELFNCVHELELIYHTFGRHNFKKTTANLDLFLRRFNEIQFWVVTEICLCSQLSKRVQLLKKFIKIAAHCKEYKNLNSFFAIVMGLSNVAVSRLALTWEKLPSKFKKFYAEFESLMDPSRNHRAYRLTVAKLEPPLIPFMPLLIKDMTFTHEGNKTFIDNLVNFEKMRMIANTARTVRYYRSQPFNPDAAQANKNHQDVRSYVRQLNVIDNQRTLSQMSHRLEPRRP

activation, inactive:
CC(C)(C)c1ccc(S(=O)(=O)/C=C/C#N)cc1 -19.5%
CN(C)Cc1ccccc1-c1cncnc1Nc1ccc(F)cc1 -17.9%
CCNc1ncc2ncc(=O)n(CCc3ccccc3)c2n1 0.674%
COc1nccnc1NS(=O)(=O)c1ccc(N)cc1 -16.7%
COc1cccc(Nc2ncc3nc(CCc4ccccc4)c(=O)n(C[C@H]4CCCO4)c3n2)c1 -4.07%
CCCC(=O)O[C@]1(C(=O)COC(=O)CC)[C@@H](C)C[C@H]2[C@@H]3CCC4=CC(=O)C=C[C@]4(C)[C@@]3(F)[C@@H](O)C[C@@]21C -13.4%
COc1ncc2nc(-c3ccc(F)cc3)c(=O)n(Cc3ccc(F)cc3)c2n1 -2.57%
Cc1nc2cnc(N3CCN(C)CC3)nc2n(Cc2cccs2)c1=O -7.39%
COC(=O)c1cc(CNC(=O)c2ccccn2)cc(NC(=O)c2ccccc2OC)c1 -3.4%
C/C=C1\NC(=O)[C@H]2CSSCC/C=C/[C@H](CC(=O)N[C@H](C(C)C)C(=O)N2)OC(=O)C(C(C)C)NC1=O (some centres not stated) -20%
CC1=C(C(=O)OC(C)C)[C@@H](c2cccc3nonc23)C([N+](=O)[O-])=C(C)N1 -1.47%
C[C@@H](CCc1ccc(O)cc1)NCCc1ccc(O)c(O)c1 -24.8%
Cc1cccc(CNc2nc(-c3ccc4c(c3)OCO4)nc3ccccc23)c1 5.64%
CC(C)OC(=O)C(C)(C)Oc1ccc(C(=O)c2ccc(Cl)cc2)cc1 -13.7% and -5.56% and -28.8%
COc1ccccc1-c1oc2ccccc2c(=O)c1O 1.38%
Cc1cc(C(=O)N(Cc2cc3cc4c(cc3nc2N2CCOCC2)CCC4)CC2CCCO2)c(=O)[nH]c1C (configuration not stated) -6.66%
CCNC(=O)[C@H]1O[C@H](n2cnc3c(N)nc(NCCc4ccc(CCC(=O)O)cc4)nc32)[C@@H](O)[C@@H]1O -18.4%
CN(C(=O)c1cnn(-c2nccc(-c3ccccc3C(F)(F)F)n2)c1C1CC1)C1CCOC1 (configuration not stated) 2.29%
O=C(NCc1ccon1)c1ccc(-c2csc3ccccc23)nc1N1CCC(N2CCCC(CO)C2)CC1 (configuration not stated) -23.3%
Cn1c(=O)c(-c2ccc(F)cc2)nc2cnc(N3CCOCC3)nc21 3.8%
COc1ccc(-n2c(=O)c(-c3cccs3)nc3cnc(N4CCN(C)CC4)nc32)cc1 8.99%
C=C1CC/C=C(\C)CC[C@@H]2[C@@H]1CC2(C)C -16%
O=C(c1cc(C(F)(F)F)cc(C(F)(F)F)c1)N1CCC2(CC1)CCN(c1ccncc1)CC2 -18.8%
COC(=O)c1c(C)cc(OC)cc1O -12.6%
NC(=O)CC[C@H](N)C(=O)O -2.46% and -31.7%
O=C1c2ccccc2C(=O)C1c1ccc(Br)cc1 2.72%
O=S(=O)(O)Oc1ccc(C(c2ccc(OS(=O)(=O)O)cc2)c2ccccn2)cc1 -4.26%
CC[C@H]1OC(=O)[C@H](C)[C@@H](O[C@H]2C[C@@](C)(OC)[C@@H](O)[C@H](C)O2)C(C)[C@@H](O[C@@H]2O[C@H](C)C[C@H](N(C)C)[C@@H]2O)[C@](C)(OC)C[C@@H](C)C(=O)[C@H](C)[C@@H](O)[C@]1(C)O (some centres not stated) 10.2%
Cc1nc2ccccc2nc1CN1CCOc2ccc(C3(O)CCN(c4ccccc4F)CC3)cc2C1 -14%
O=C(c1ccco1)N1CCC2(CC1)CN(c1ccccn1)C2 -0.275%
CCn1c(-c2cccc(OC)c2)nc2cc(NC(C)=O)cc(C(=O)N3CCC[C@H]3C(=O)OC)c21 -2.69%
CC(=O)OCC(=O)C1CCC2C3CCC4=CC(=O)CC[C@@]4(C)C3CC[C@]12C (some centres not stated) -9.81%
Cc1cccc(CNc2ccnc(-c3ccc(C(=O)N(C)C)cc3)n2)c1 -34.4%
FC(F)(F)c1ccccc1-c1nccc(-n2ccnc2)n1 -9.06%
CCOC(=S)SSC(=S)OCC -19.7%
Cc1ccc(CNc2nc(CN3CCN(C=O)CC3)nc3ccccc23)o1 5.61%
COCCn1c(=O)c(-c2ccc(Cl)cc2)nc2cnc(Nc3ccccc3)nc21 -8.15%
CO[C@]1(NC(=O)C(C(=O)O)c2ccc(O)cc2)C(=O)N2C(C(=O)O)=C(CSc3nnnn3C)COC21 (some centres not stated) -19.7%
CC(=O)NCCNc1ccnc(-c2ccccc2C(F)(F)F)n1 -2.45%
Cc1cc2c(s1)Nc1ccccc1N=C2N1CCN(C)CC1 -14.4% and -1.98%
CC1(C)O[C@H]2C[C@@H]3[C@H]4CCC5=CC(=O)C=C[C@]5(C)[C@@]4(F)[C@@H](O)C[C@]3(C)[C@]2(C(=O)CO)O1 2.81%
O=C(O)CC1CCCc2ccccc2C1O (configuration not stated) -3.93%
CO/N=C(/C(=O)N[C@@H]1C(=O)N2C(C(=O)O)=C(Cn3nnc(C)n3)CS[C@H]12)c1csc(N)n1 13.5%
COc1ccc2cc(CNC3CCS(=O)(=O)C3)c(-c3ccc(OC)c(OC)c3)nc2c1 (configuration not stated) 2.21%
N[C@H](CCC(=O)N[C@H](CSN=O)C(=O)NCC(=O)O)C(=O)O -26.4%
COc1ccc(Oc2ncc3nc(-c4ccc(Cl)cc4)c(=O)n(C)c3n2)cc1 2.17%
O=C(O)c1ccccc1O 1.02% and -18.8% and -3.37%
CC(=O)Oc1cc(-c2coc3cc(OC(C)=O)c(OC(C)=O)c(OC(C)=O)c3c2=O)cc(OC(C)=O)c1OC(C)=O -4.18%
COc1ccc(-c2nc3cnc(N4CCOCC4)nc3n(C3CC3)c2=O)cc1 -9.96%
O=c1oc2cc(O)ccc2s1 -6.04%
NNc1nnc(NN)c2ccccc12 20.5%
Cc1oc(-c2ccccc2NC(=O)c2ccccc2)nc1CNC(=O)c1c(-c2ccccc2)noc1C 7.1%
COc1cc2ncnc(Nc3cccc(Cl)c3)c2cc1OC -3.04% and -16.6% and -17.3%
OCc1nc2ccc(Cl)cc2[nH]1 -14.6%
O=C(c1cccnc1)C1CCCN(Cc2ccc3c(c2)CN(C(=O)c2cccs2)CCO3)C1 (configuration not stated) -0.301%
COc1ncc2nc(-c3cc(F)cc(F)c3)c(=O)n(Cc3cccs3)c2n1 1.12%
CC/C(=C/c1ccccc1)c1cc(Oc2ccccc2)cc2oc3ccccc3c12 -3.35%
C=C[C@@]1(C)CC(=O)[C@@]2(O)[C@@]3(C)[C@@H](O)CCC(C)(C)[C@@H]3[C@H](OC(=O)CCN(C)C)[C@H](OC(C)=O)[C@@]2(C)O1 -21.8%
O=C(NCc1ccccn1)c1cnn(-c2nccc(-c3cccs3)n2)c1C1CC1 -3.13%
CN1CCN(c2ncncc2-c2ccc(N(C)C)cc2)CC1 -9.35%
CCCCC/C=C\C/C=C\C/C=C\C/C=C\CCCC(=O)O[C@@H](CO)COCCCCCCCCCCCCCCCC -2.94%
Cc1cc(-c2ccnc(-n3ncc(C(=O)NCCc4cccnc4)c3C)n2)c(C)s1 -11.7%
O=c1c(-c2cccs2)nc2cnc(N3CCNCC3)nc2n1CCc1ccccc1 6.28%
COc1ccc2[nH]cc(CCNc3ncnc4ccc(-c5ccoc5)cc34)c2c1 -12.4%
CC1(C)OC2CC3C4CC(F)C5=CC(=O)CC[C@@]5(C)C4C(O)C[C@@]3(C)[C@]2(C(=O)CO)O1 (some centres not stated) 19.5%
O=C(c1cc(C(F)(F)F)cc(C(F)(F)F)c1)N1CCC2(CC1)CCN(c1ccccc1)CC2 -27.3%
CN(C)C(=O)c1ccc(-c2cc(NCc3cccs3)ncn2)cc1 -16.8%
NCCCCNS(=O)(=O)c1ccc2c(Cl)cccc2c1 -11.2%
CSc1nnc(CCNC(=O)c2ccccc2C(F)(F)F)n1-c1ccc(F)cc1 -13.1%
CCc1c(C)c2ccccc2[nH]c1=O -14%
Nc1ncnc2c1ncn2C1OC(COP(=O)(O)O)C(O)C1O (configuration not stated) -9.34%
O=C(c1cnccn1)N1CCC2(CC1)CN(Cc1cc(C(F)(F)F)cc(C(F)(F)F)c1)C2 -14.5%
CN(C)c1ccc(-c2nccc(NCCN3CCOCC3)n2)cc1 -10.2%
COCCn1c(=O)c(C)nc2cncnc21 -1.56%
CNc1nc(-c2ccccc2C)nc2ccccc12 -20.4%
O=C(O)[C@H](CC(=O)N1C[C@H]2CCCC[C@H]2C1)Cc1ccccc1 -24.7%
N[C@H](C(=O)O)c1ccc(O)cc1 -7.02%
CN1CCN(c2ncc3nc(-c4cccc(C#N)c4)c(=O)n(C[C@H]4CCCO4)c3n2)CC1 -11.6%
CC(C)(CO)NC(=O)c1cnn(-c2ncc3c(n2)-c2ccccc2CC3)c1C1CC1 -6.03%
CCOc1ccc2nc(S(N)(=O)=O)sc2c1 -21.5%
Cc1c(O)cc2c(c1C)O[C@](C)(CCC[C@H](C)CCC[C@H](C)CCCC(C)C)CC2 -58.8%
COc1ccc(-c2cccc3c2OC(CNC(=O)c2ccc4c(c2)OCO4)C3)nn1 (configuration not stated) -15.3%
